Measurements from PubChem BioAssay AID1240 (Sanford-Burnham Center for Chemical Genomics, 2008).
The campaign covered roughly 50,000 compounds. About 800 (1.6%) showed an effect of 50% or more. The list shows a part of the results.

Target: Bcl-2-like protein 10 (Homo sapiens) (UniProt Q9HD36)
Test: Phenotype converters, Bcl-B/TR3 peptide binding displacement, primary biochemical FP (AID 1240);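 note: 0% = Bcl-B with tracer peptide and DMSO and 100% = tracer peptide lacking Bcl-B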
Details: GST-Bcl-B / FITC-TR3 peptide fluorescence polarization; stronger effect = higher value; compound at 3.75 mg/L

Chain of UniProt Q9HD36 (Q9HD36 whole entry, looked up): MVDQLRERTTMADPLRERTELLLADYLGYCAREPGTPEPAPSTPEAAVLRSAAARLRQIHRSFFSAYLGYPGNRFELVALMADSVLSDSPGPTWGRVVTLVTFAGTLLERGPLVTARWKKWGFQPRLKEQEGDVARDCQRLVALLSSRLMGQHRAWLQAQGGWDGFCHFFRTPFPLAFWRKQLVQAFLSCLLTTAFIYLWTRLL

Compound | displacement [%]
N/C(=N\OC(=O)c1ccc(F)cc1)c1ccc(Br)cc1 | -18.5
CC(C)(Cc1ccc(O)cc1)NC(=O)Cc1ccccc1 | 9.2
CC1=C(C(=O)Nc2ccccc2)C(c2ccncc2)C(C#N)=C(SCC(N)=O)N1 (stereo not given) | -3.8
Cc1cc(NC(=O)C(c2ccccc2)c2ccccc2)no1 | 14.9
COc1cc(C2NC(=S)NC(C)=C2C(=O)Nc2cccc(C)c2)ccc1O (stereo not given) | 27.6
O=C1CC(=O)NC(SCC(=O)Nc2nc3ccccc3s2)=N1 | 12.7
CCOC(=O)c1ccc2[nH]c3c(c2c1)CCCC3=O | 5.4
O=C(CN1C(=O)/C(=C/c2cccc(Br)c2)SC1=S)NC1=NCCS1 | 10.5
Cc1cccc(OCC(=O)N/N=C/c2ccc([N+](=O)[O-])s2)c1 | 12.6
CCCOc1cccc(C(=O)Nc2cccc(NC(=O)c3cccc(Cl)c3)c2)c1 | -5.6
N=c1nc(N)nc2n1NC(c1ccc(Cl)cc1)=CS2 | -1
CC12CN3CCN(C1)CC(C)(C3)C2NC(=S)Nc1ccccc1 (stereo not given) | 7.1
O=C(CCCN1C(=O)c2cccc3cccc(c23)C1=O)NC1CCS(=O)(=O)C1 (stereo not given) | 13.6
CCOC(=O)NC(NCc1ccco1)(C(F)(F)F)C(F)(F)F | -0.9
CC1(C(=O)O)CCC(C(=O)Nc2cccc(F)c2)C1(C)C (stereo not given) | 5.8
O=C(NN1CCOCC1)c1cc2ccccc2oc1=O | 5.7
Cc1ccc2nc(-c3ccc(NC(=O)c4ccc(S(=O)(=O)N5CCCC5)cc4)cc3)sc2c1 | -1.5
O=C(O)c1c(Br)c(Br)c(Br)c(Br)c1C(=O)N1CCOCC1 | -2.3
Cc1ccc(S(=O)(=O)ON=C2C=CC(=O)C=C2)cc1 | 10.5
C=CCNC(=O)CCCOc1ccc(Cl)cc1Cl | 3.8
CC1(C)CC(NC(=S)Nc2ccc(F)cc2)CC(C)(C)N1 | 10.3
COc1ccc(OC(C)C(=O)NCCc2ccccc2)cc1 (stereo not given) | 11.9
CCCCOC(=O)c1ccc(NC(=O)c2ccc(-c3cccc([N+](=O)[O-])c3)o2)cc1 | 11.8
Cc1ccccc1Nc1nc(-c2cc3ccccc3oc2=O)cs1 | 11.2

Compound | displacement [%]
CC(C)c1ccc(/C=C/C(=O)NCc2cccnc2)cc1 | -10.4
Cc1ccc(-c2c(C)n([O-])c3c([n+]2=O)CCC3)cc1 | -10.4
CC(C)(C)c1ccc(C(=O)Nc2ncc(Cc3ccc(F)cc3)s2)cc1 | -24.8
Cc1ccc(Cc2cnc(NC(=O)c3ccc(Cl)cc3)s2)cc1 | 15.2
CCOC(=O)C1=C(O)/C(=C/c2ccc(O)c(OC)c2)SC1=Nc1cccc(Cl)c1 | -6.4
Cc1cc(NC(=O)c2ccc(C)c(C)c2)no1 | 6.7
Clc1ccc(-c2ccc(/C=N/Nc3nncc(-c4ccccc4)n3)o2)cc1 | -2.3
CCOC(=O)C1=C(O)/C(=C/c2ccc(N(CC)CC)cc2)SC1=Nc1ccc(OC)cc1 | -11.5
CC(=O)Nc1ccccc1NS(=O)(=O)c1ccccc1 | -1.9
CC(=O)Nc1ccccc1NC(=O)c1cccc(I)c1 | 6.4
Cc1ccc(-c2ccccc2)n1-c1ccc(O)c(C(=O)O)c1 | 20.4
Cc1nc2cc(N=Cc3cc(C(C)(C)C)c(O)c(C(C)(C)C)c3)ccc2n1C | 0.7
O=[N+]([O-])c1ccc(OC/C=C2\Oc3c(Cl)cc(Cl)cc3C2N2CCOCC2)cc1 (stereo not given) | -1.2
C/C(=N\NS(=O)(=O)c1ccc(Cl)cc1)C1CC2CCC1C2 (stereo not given) | 9.5
CCOc1ccc(NC(=O)C(C)Oc2ccc(OC)cc2)cc1 (stereo not given) | -3.9
CCOc1ccccc1NC(=O)CSc1nc2ccccc2o1 | -10.1
COc1ccccc1N1C(=O)c2cccc3c(N4CCCC4)ccc(c23)C1=O | 102
O=C(c1ccc(Cl)c([N+](=O)[O-])c1)N1CCc2ccccc2C1 | 4.1
CC(=O)c1cccc(Nc2nc(-c3cccs3)cs2)c1 | -9.1
Cc1csc(NC(=O)c2cc(-c3cccc(Br)c3)nc3ccccc23)n1 | -6.5
CCc1ccc(N2C(=O)CSC2c2ccc(Cl)cc2Cl)cc1 (stereo not given) | 9.8
CCOC(=O)C(=Cc1ccc(-c2cccc(Cl)c2Cl)o1)C(=O)OCC | -7.2
CCOC(=O)c1ccc(NC(=O)CN(c2ccc(OC)cc2)S(C)(=O)=O)cc1 | -10.2
O=[N+]([O-])c1cccc(/C=N/Nc2c(Cl)cc(Cl)cc2Cl)c1 | 8.9

Compound | displacement [%]
O=C(NCCN1CCOCC1)c1cc(-c2cccc(Br)c2)nc2ccccc12 | -7.6
COc1cc2c(cc1OC)C(c1ccc(Br)cc1)N(C1CC(=O)N(c3ccccc3)C1=O)CC2 (stereo not given) | 10.4
CC1(C)Cc2ccccc2-c2c[nH]c(=O)n21 | 0.8
CC(=O)CC(=O)Nc1ccc(C(C)C)cc1 | 4
O=C(O)COc1c(Cl)cc(/C=C2\C(=O)NC(=O)N(c3ccccc3)C2=O)cc1Cl | -2.5
CCOC(=O)c1c(-c2ccccc2)csc1NC(=O)c1sc2cc(F)ccc2c1Cl | -2.4
O=C(NCc1cccs1)c1nc2nc(-c3ccccc3)cc(C(F)(F)F)n2n1 | 3
COc1ccc(C(=O)Nc2cc3nn(-c4ccc(OC)cc4)nc3cc2C)cc1 | 2.2
COc1cccc(C(=O)N2CCN(C(=O)COc3ccccc3)CC2)c1 | 16.5
O=C(/C=C/c1ccc(NC(=O)c2cccs2)cc1)c1ccco1 | 11.8
O=C(NC(=S)Nc1ccc(NC(=O)c2ccco2)cc1)c1ccco1 | 10.7
Cc1ccccc1C(=O)NNC(=O)Cc1ccccc1 | -3.5
Cc1cc([N+](=O)[O-])ccc1NC(=O)c1ccccc1 | -2.8
Cc1ccc(C(=O)O/N=C(\N)Cc2cccc3ccccc23)cc1[N+](=O)[O-] | 42.2
Cc1cc2c(cc1C)-c1nnc(-c3ccco3)n1C(C)(C)C2 | 5.4
O=C1CC(c2ccccc2)CC2=C1C(c1cccc(Cl)c1Cl)Nc1ccccc1N2 (stereo not given) | -6
CCOC(=O)C1=C(C)N=C2SCC(=O)N2C1c1ccc(F)cc1 (stereo not given) | 22
CC(C)(C)C1CCc2c(sc(NC(=O)C3CCCCC3C(=O)O)c2C(N)=O)C1 (stereo not given) | -7.8
CCOc1ccc(N(CC(=O)Nc2ccc(Cl)cc2)S(=O)(=O)c2ccc(SC)cc2)cc1 | 2.2
O=C(/C=C/c1ccccc1)NC(=S)Nc1ccc(F)cc1 | 2.7
Cc1ccc2[nH]c(=O)c(C(=O)/C=C/c3ccccc3Cl)c(-c3ccccc3)c2c1 | 21.3
COc1ccc(CC(=O)N2CCN(c3ccccn3)CC2)cc1OC | 29
